“And” between values parts separate entries of the source, which are not always exact repeats. Identical values can stand only once. About 9,900 (2.8%) of roughly 350,000 compounds were called active. The inconclusive results got no clear call from the source; some entries with a clear call stand among them for comparison. The call rests on the fitted dose curve; in most records, active means well fitted activation curve with a large enough effect; inconclusive means small, poorly fitted or top-dose-only effect; inactive means no such curve, though single readings can be large or run the other way. Potencies of inconclusive entries are doubtful fits and often do not repeat.
Experiment: A quantitative high throughput screen for small molecules that induce DNA re-replication in MCF 10a normal breast cells. Further: nearly all actives have a fitted effect of over 50% in size. On activity, positive = re-replication: % of control where 0% means no effect.
Conditions: MCF 10A DNA re-replication, Hoechst nuclear intensity, 48 h; activity, positive = re-replication: at 46.1 µM (top of the series)
Potency means the concentration at half of the fitted maximal effect; tags describe the fitted curve by direction and shape.

SMILES | Potency | activity, positive = re-replication
CCCn1c2c(c(O)c(C(=O)NC)c1=O)CCCC2 | inactive | 
Cc1ccc(NC(=O)COC(=O)c2nn(C)c(=O)c3ccccc23)cc1F | inactive | 
Cc1ccnc(NS(=O)(=O)c2cc(-c3cc(C)no3)ccc2C(C)C)c1 | inconclusive: 16.4 µM [activator, partial curve, poor fit] | 
CN(C)CCNc1oc(COc2ccc(Cl)cc2)nc1C#N | inconclusive: 3.66 µM [activator, full curve, poor fit] | 
c1ccc(CCCNCCCn2cnc3c(OCc4ccccc4)ncnc32)cc1 | inconclusive: 29.1 µM [activator, single point] | 
COC(=O)c1cccc(C23CC4(C2)[C@H](CN(C)[C@@H]4c2ccccc2)C3c2ccccc2)c1 (stereo not given in full) | inconclusive: 32.6 µM [activator, partial curve, poor fit] | 
Cc1cccc(Nc2nnc(SCC(O)=C(C#N)c3nc4ccccc4[nH]3)s2)c1 | active: 14.6 µM | 
N#Cc1cc(N)ccc1Sc1ccc(Cl)cc1 | inconclusive: 18.4 µM [activator, single point] | 
CCCOc1ccc(CNC(=O)Cc2cccs2)cc1 | inconclusive: 29.1 µM [activator, single point] | 
Cc1cc(C)c(S(=O)(=O)N(CC(=O)O)CC(=O)O)c(C)c1 | inactive | 
CCCCN1CC(COCc2ccccc2)Oc2cccc(Oc3ccc(OC)cc3)c2S1(=O)=O (stereo not given) | inactive | 
COc1ccc(-c2nnc(NC(=O)c3ccc([N+](=O)[O-])o3)o2)c(OC)c1 | active: 8.2 µM | 
CCN(CC)S(=O)(=O)c1cccc(-c2nnc(SCc3nc4ccccc4s3)o2)c1 | inconclusive: 29.1 µM [activator, partial curve, poor fit] | 
O=C(/C=C/c1ccc([N+](=O)[O-])cc1)Nc1ncc([N+](=O)[O-])s1 | inconclusive: 18.4 µM [activator, single point] | 
COc1ccc(C)cc1Nc1n[n+](C)c(-c2ccc(O)cc2O)s1 | inconclusive: 0.0731 µM [activator, full curve, poor fit] | 
CC[C@]1(O)C[C@@H]2CN(CCc3c([nH]c4ccccc34)[C@@](C(=O)OC)(c3cc4c(cc3OC)N(C)[C@H]3[C@@](O)(C(=O)OC)[C@H](OC(C)=O)[C@]5(CC)C=CCN6CC[C@]43[C@@H]65)C2)C1 |  | inconclusive: 117% [activator]
CC(=O)c1cccc(Nc2cc(C)nc3ccc(C)cc23)c1 | inactive | 
Cc1ccc(-c2nnc(NCc3nc4ccccc4[nH]3)c3ccccc23)cc1S(=O)(=O)N1CCCCC1 | inconclusive: 13 µM [activator, partial curve, poor fit] | 
CCOC(=O)C1=C(c2ccccc2)O/C(=C(\C(=O)OC)C(F)(F)F)S1 | inactive | 
CCCCc1ccc(NC(=S)NCCCN2CCOCC2)cc1 | inconclusive: 29.1 µM [activator, partial curve, poor fit] | 

SMILES | Potency | activity, positive = re-replication
COc1cc(/C=N\NC(=O)CC(=O)NCCc2ccccc2)ccc1O | inactive | 
CCC(C)(C)c1ccc(OCCN2C(=O)NC(C)(C)C2=O)cc1 | inactive | 
COc1ccc(CNC(=O)C2CCCN(S(=O)(=O)c3c(C)noc3/C=C/N(C)C)C2)cc1 (stereo not given) | inconclusive: 29.1 µM [activator, single point] | 
CN(C)S(=O)(=O)N1CCC(Oc2cccc(C(=O)N3CCCCCCC3)c2)CC1 | inconclusive: 32.6 µM [activator, partial curve, poor fit] | 
CC(=O)Nc1ccc(S(=O)(=O)NCCC(=O)Nc2ccc(C)c(Cl)c2)cc1 | inactive | 
CCOC(=O)c1c(NC(=O)CSc2nnc(N)s2)sc(C)c1-c1ccc(C)cc1 | inconclusive: 14.6 µM [activator, partial curve, poor fit] | 
CCC1CCCCN1CCCNC(=O)c1ccc(N2CCCC2=O)cc1 (stereo not given) | inactive | 
CNC(=S)Nc1cccc(C(=O)OC)c1 | inactive | 
O=C(NCc1ccccn1)C1Nc2ccc(OC(F)(F)F)cc2C2C=CCC12 (stereo not given) | inconclusive: 29.1 µM [activator, single point] | 
Nc1nn(-c2ccccc2)c(N)c1N=Nc1cccc(F)c1 | active: 3.66 µM | 
CCOc1ccc(NC(=O)CN2CCCC2c2cccs2)cc1S(=O)(=O)N1CCCC1 (stereo not given) | inconclusive: 18.4 µM [activator, single point] | 
CCc1ccc(NC(=O)CSc2nc3ccccc3c(=O)n2CCCC(=O)N2CCCC2)cc1 | inconclusive: 4.11 µM [activator, single point] | 
Cc1cc(=O)n2[nH]c(N)c(N=Nc3ccccc3F)c2n1 | inconclusive: 18.4 µM [activator, partial curve, poor fit] | 
Cc1ccc(S(=O)(=O)N(CC(=O)N=Nc2c(O)[nH]c3ccccc23)c2ccc(C)c(C)c2)cc1 | inconclusive: 3.26 µM [activator, full curve, poor fit] and inconclusive: 7.31 µM [activator, partial curve] | 
CC(C)(C)c1ccc(C(=O)NC(=S)NCc2cccnc2)cc1 | inactive | 
CC[C@H](C)[C@H]1O[C@]2(CC[C@@H]1C)C[C@@H]1C[C@@H](CC=C(C)[C@@H](O[C@H]3C[C@H](OC)[C@@H](O[C@H]4C[C@H](OC)[C@@H](O)[C@H](C)O4)[C@H](C)O3)[C@@H](C)C=CC=C3CO[C@@H]4[C@H](O)C(C)=C[C@@H](C(=O)O1)[C@]34O)O2 | inconclusive: 6.51 µM [activator, single point] | 
O=S(=O)(Cc1ccccc1)c1cnc2ccccc2n1 | inconclusive: 29.1 µM [activator, single point] | 
COc1ccc(NC(=O)C(NC(=O)Cc2cccs2)c2ccccc2)cc1 (stereo not given) | inactive | 
O=C(c1ccc2ccccc2n1)N1CCN(Cc2c(F)cccc2Cl)CC1 | inconclusive: 29.1 µM [activator, single point] | 
COc1cccc(/C=C2\SC(=S)N(C(C)C(=O)NC3C=CS(=O)(=O)C3)C2=O)c1 (stereo not given) | inconclusive: 18.4 µM [activator, single point] | 

Reference: PubChem BioAssay AID624296 (National Center for Advancing Translational Sciences (NCATS), 2012)
